Results taken from article doi:10.1101/2025.11.14.688473.
No constants are given. Whether binding was seen depends on the method and setting. Some entries that bind do so weakly or less than the wild type. Where a sequence is shown, tags or fusion partners need not be part of it.

Target: T1, BD-Atg9 (S. cerevisiae) (UniProt Q12142)
T1 sequence: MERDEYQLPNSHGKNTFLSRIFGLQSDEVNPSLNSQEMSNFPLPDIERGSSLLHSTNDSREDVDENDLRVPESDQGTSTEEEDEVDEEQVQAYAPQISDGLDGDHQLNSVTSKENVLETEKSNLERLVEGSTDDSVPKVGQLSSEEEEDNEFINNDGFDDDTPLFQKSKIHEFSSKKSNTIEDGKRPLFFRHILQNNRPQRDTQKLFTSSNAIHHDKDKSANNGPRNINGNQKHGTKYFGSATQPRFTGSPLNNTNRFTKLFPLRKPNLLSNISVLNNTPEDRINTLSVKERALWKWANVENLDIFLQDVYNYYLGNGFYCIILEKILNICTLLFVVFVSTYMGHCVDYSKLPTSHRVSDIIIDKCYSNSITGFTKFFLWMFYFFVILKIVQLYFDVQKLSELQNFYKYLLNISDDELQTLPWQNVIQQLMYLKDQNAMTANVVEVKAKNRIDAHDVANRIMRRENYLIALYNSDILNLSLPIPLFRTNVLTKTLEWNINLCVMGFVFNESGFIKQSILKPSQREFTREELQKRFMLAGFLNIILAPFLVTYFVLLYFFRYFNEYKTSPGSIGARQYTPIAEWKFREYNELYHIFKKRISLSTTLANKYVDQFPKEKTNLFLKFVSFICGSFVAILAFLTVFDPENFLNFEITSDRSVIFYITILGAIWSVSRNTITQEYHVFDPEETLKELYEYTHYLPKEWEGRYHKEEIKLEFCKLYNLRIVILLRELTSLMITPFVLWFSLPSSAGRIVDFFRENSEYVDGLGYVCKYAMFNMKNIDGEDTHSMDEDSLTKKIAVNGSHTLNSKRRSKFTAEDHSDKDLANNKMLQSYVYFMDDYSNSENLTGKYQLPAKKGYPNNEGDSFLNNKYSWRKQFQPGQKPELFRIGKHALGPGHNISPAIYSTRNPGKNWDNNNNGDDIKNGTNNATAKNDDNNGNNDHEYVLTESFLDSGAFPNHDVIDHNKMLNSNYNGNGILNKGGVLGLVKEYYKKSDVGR
Assay: two-hybrid; BD-ATG9 and AD-ATG11 or mutants in multiple-knockout yeast YCY149 (lacking 25 ATG genes); growth on SMD -ura -leu -his with 1.5 mM 3-amino-triazol, 4-5 days at 30°C

B1: AD-Atg11 (wild type) (protein, UniProt Q12527 1-1178)
chain: MADADEYSTAPTQQEITPLQTTATIINAISGECITTNVDFFVSLDKFKQFIARKWKIPPDQLLILLPYGNKLKPSMFKELLINRSFTLNDFYVYDRRLFSLVSKPTPTNLLTSKDSNPMNSPNSNDLTETLEYLIKNSHISQYQGSDTIMIKPMPSPLEDADVDLSRLNYHSVTSLLTTNLGWLSALEIDVHYFKSLIPDIIAHIKRIFDGLTVCSQYLKLYCFDVESLYNSNVQFLNQLVDNGMTSKWEKCFNDTLSKLTALEGDSLQKFINIESLLENEKSVKILNHSINGKLNKIKREIDENASFRDIITVNIDRLRQMFTPNESKFELEDQMAESFEVLVSEMRTRSRNVLDKEEEEFNSQEFLKSMNVMLEKDKKESVKTLFTISQALYSQIGELIDLKKSLQKHAVAILGNIAFTQMEILGIKRLLLNECNKDLELYKKYEVEFAQVEDLPLIYGLYLIEKYRRLSWFQQILSFISNFNQDLELFKQNELRTRNKWVKNFGSIATVFCEDLLSSSDFKRLNEYHSHTSPPNEDEEDENENSIANYRQDLVKVSQAIDNYMTQIKETDVSEPIIDLLSKTLFETKRFHIIYSNFKNNNNNSSNGNSISPEGSIALKSDDVVKGYKTRIKKLESLLHEFQYSDIGHWPQGVLNTHLKPFRGSATSINKKKFLGASVLLEPANISEVNIDSVSQANNHQIQELESNVDDLLHQLQLLKEENNRKSMQISEMGKKISDLEVEKTAYRETLTNLNQELARLTNEEQSHRTEIFTLNASFKKQLNDIISQDNEKIEKLTGDYDDVSKSRERLQMDLDESNKKHEQEVNLLKADIERLGKQIVTSEKSYAETNSSSMEKGEKFETIPLAEDPGRENQISAYTQTLQDRIFDIISTNIFILENIGLLLTFDNNNNIQIRRVKGLKKGTAQSNILDESTQMLDAHDNSLIKSPVFQKLKDEYELIKSVANGSEKDTQQSIFLGNITQLYDNKLYEVAVIRRFKDIETLAKKLTKENKIKRTLLERFQREKVTLRNFQIGDLALFLPTRENVNSVGSMSSSTSSLSSSFSSVDLSTPPPLDAMSIQSSPSVIHSNVINQASISGRDKNKLMRPWAAFTAFEESTRYFLKDEKGLTKGKEWFVGRIVTLEHFVADSPSNNPFRLPKGSVWFQVTAVVVSYQGV
  binding: binds

B2: AD-atg11 IA3 (protein, UniProt Q12527 1-575; P01094 2-53; Q12527 628-1178)
chain: MADADEYSTAPTQQEITPLQTTATIINAISGECITTNVDFFVSLDKFKQFIARKWKIPPDQLLILLPYGNKLKPSMFKELLINRSFTLNDFYVYDRRLFSLVSKPTPTNLLTSKDSNPMNSPNSNDLTETLEYLIKNSHISQYQGSDTIMIKPMPSPLEDADVDLSRLNYHSVTSLLTTNLGWLSALEIDVHYFKSLIPDIIAHIKRIFDGLTVCSQYLKLYCFDVESLYNSNVQFLNQLVDNGMTSKWEKCFNDTLSKLTALEGDSLQKFINIESLLENEKSVKILNHSINGKLNKIKREIDENASFRDIITVNIDRLRQMFTPNESKFELEDQMAESFEVLVSEMRTRSRNVLDKEEEEFNSQEFLKSMNVMLEKDKKESVKTLFTISQALYSQIGELIDLKKSLQKHAVAILGNIAFTQMEILGIKRLLLNECNKDLELYKKYEVEFAQVEDLPLIYGLYLIEKYRRLSWFQQILSFISNFNQDLELFKQNELRTRNKWVKNFGSIATVFCEDLLSSSDFKRLNEYHSHTSPPNEDEEDENENSIANYRQDLVKVSQAIDNYMTQIKETDVSNTDQQKVSEIFQSSKEKLQGDAKVVSDAFKKMASQDKDGKTTDADESEKHNYGYKTRIKKLESLLHEFQYSDIGHWPQGVLNTHLKPFRGSATSINKKKFLGASVLLEPANISEVNIDSVSQANNHQIQELESNVDDLLHQLQLLKEENNRKSMQISEMGKKISDLEVEKTAYRETLTNLNQELARLTNEEQSHRTEIFTLNASFKKQLNDIISQDNEKIEKLTGDYDDVSKSRERLQMDLDESNKKHEQEVNLLKADIERLGKQIVTSEKSYAETNSSSMEKGEKFETIPLAEDPGRENQISAYTQTLQDRIFDIISTNIFILENIGLLLTFDNNNNIQIRRVKGLKKGTAQSNILDESTQMLDAHDNSLIKSPVFQKLKDEYELIKSVANGSEKDTQQSIFLGNITQLYDNKLYEVAVIRRFKDIETLAKKLTKENKIKRTLLERFQREKVTLRNFQIGDLALFLPTRENVNSVGSMSSSTSSLSSSFSSVDLSTPPPLDAMSIQSSPSVIHSNVINQASISGRDKNKLMRPWAAFTAFEESTRYFLKDEKGLTKGKEWFVGRIVTLEHFVADSPSNNPFRLPKGSVWFQVTAVVVSYQGV
  binding: binds
